# According to the supplement of paper PMC8728848:
# Some of the results follow.
# Experiments:
# Assay in all cases: glycan array binding signal (z-score within array); higher = stronger binding
# Conditions in all cases: glycan notation: IUPAC condensed, linker removed; mutation: Y228W
# [1] = target: Fuc(a1-2)[Gal(a1-3)]Gal(b1-4)GlcNAc(b1-2)Man(a1-3)[Fuc(a1-2)[Gal(a1-3)]Gal(b1-4)GlcNAc(b1-2)Man(a1-6)]Man(b1-4)GlcNAc(b1-4)GlcNAc
# Outline: (§1)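 The binding signal is a Z-score computed within each array and averaged over linkers. Arrays of the same protein sequence at different concentrations or buffers were also averaged together. Data originate from 3228 arrays in the Consortium for Functional Glycomics database, kept only where the protein sequence was available.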
# [2] = target: Fuc(a1-2)[Gal(a1-3)]Gal(b1-4)GlcNAc(b1-2)Man(a1-3)[Fuc(a1-2)[Gal(a1-3)]Gal(b1-4)GlcNAc(b1-2)Man(a1-6)]Man(b1-4)GlcNAc(b1-4)[Fuc(a1-6)]GlcNAc
# Outline: as §1
# [3] = target: Fuc(a1-2)[Gal(a1-3)]Gal(b1-4)GlcNAc(b1-3)GalNAc
# Outline: as §1
# [4] = target: Fuc(a1-2)[Gal(a1-3)]Gal(b1-4)GlcNAc(b1-3)[Fuc(a1-2)[Gal(a1-3)]Gal(b1-4)GlcNAc(b1-6)]GalNAc
# Outline: as §1
# [5] = target: Fuc(a1-2)[Gal(a1-3)]Gal(b1-4)GlcNAc(b1-6)GalNAc
# Outline: as §1
# [6] = target: Fuc(a1-2)[Gal(a1-3)]Gal(b1-4)[Fuc(a1-3)]Glc
# Outline: as §1
# [7] = target: Fuc(a1-2)[Gal(a1-3)]Gal(b1-4)[Fuc(a1-3)]GlcNAc
# Outline: as §1
# [8] = target: Fuc(a1-2)[Gal(a1-3)]Gal(b1-4)[Fuc(a1-3)]GlcNAc(b1-3)GalNAc
# Outline: as §1
# [9] = target: Fuc(a1-2)[Gal(a1-4)]Gal(b1-4)GlcNAc
# Outline: as §1
# [10] = target: Fuc(a1-2)[GalNAc(a1-3)]Gal
# Outline: as §1
# [11] = target: Fuc(a1-2)[GalNAc(a1-3)]Gal(b1-3)GalNAc(a1-3)[Fuc(a1-2)]Gal(b1-4)GlcNAc
# Outline: as §1
# [12] = target: Fuc(a1-2)[GalNAc(a1-3)]Gal(b1-3)GalNAc(b1-3)Gal(a1-4)Gal(b1-4)Glc
# Outline: as §1
# [13] = target: Fuc(a1-2)[GalNAc(a1-3)]Gal(b1-3)GlcNAc
# Outline: as §1
# [14] = target: Fuc(a1-2)[GalNAc(a1-3)]Gal(b1-3)GlcNAc(b1-2)Man(a1-3)[Fuc(a1-2)[GalNAc(a1-3)]Gal(b1-3)GlcNAc(b1-2)Man(a1-6)]Man(b1-4)GlcNAc(b1-4)GlcNAc
# Outline: as §1
# [15] = target: Fuc(a1-2)[GalNAc(a1-3)]Gal(b1-3)GlcNAc(b1-2)Man(a1-3)[Fuc(a1-2)[GalNAc(a1-3)]Gal(b1-3)GlcNAc(b1-2)Man(a1-6)]Man(b1-4)GlcNAc(b1-4)[Fuc(a1-6)]GlcNAc
# Outline: as §1
# [16] = target: Fuc(a1-2)[GalNAc(a1-3)]Gal(b1-3)GlcNAc(b1-3)GalNAc
# Outline: as §1
# [17] = target: Fuc(a1-2)[GalNAc(a1-3)]Gal(b1-3)GlcNAc(b1-6)GalNAc
# Outline: as §1
# [18] = target: Fuc(a1-2)[GalNAc(a1-3)]Gal(b1-4)Glc
# Outline: as §1
# [19] = target: Fuc(a1-2)[GalNAc(a1-3)]Gal(b1-4)GlcNAc
# Outline: as §1
# [20] = target: Fuc(a1-2)[GalNAc(a1-3)]Gal(b1-4)GlcNAc(b1-2)Man
# Outline: as §1
# [21] = target: Fuc(a1-2)[GalNAc(a1-3)]Gal(b1-4)GlcNAc(b1-2)Man(a1-3)[Fuc(a1-2)[GalNAc(a1-3)]Gal(b1-4)GlcNAc(b1-2)Man(a1-6)]Man(b1-4)GlcNAc(b1-4)GlcNAc
# Outline: as §1
# [22] = target: Fuc(a1-2)[GalNAc(a1-3)]Gal(b1-4)GlcNAc(b1-2)Man(a1-3)[Fuc(a1-2)[GalNAc(a1-3)]Gal(b1-4)GlcNAc(b1-2)Man(a1-6)]Man(b1-4)GlcNAc(b1-4)[Fuc(a1-6)]GlcNAc
# Outline: as §1
# [23] = target: Fuc(a1-2)[GalNAc(a1-3)]Gal(b1-4)GlcNAc(b1-3)Gal(b1-4)GlcNAc
# Outline: as §1
# [24] = target: Fuc(a1-2)[GalNAc(a1-3)]Gal(b1-4)GlcNAc(b1-3)Gal(b1-4)GlcNAc(b1-3)Gal(b1-4)GlcNAc
# Outline: as §1
# [25] = target: Fuc(a1-2)[GalNAc(a1-3)]Gal(b1-4)GlcNAc(b1-3)GalNAc
# Outline: as §1
# [26] = target: Fuc(a1-2)[GalNAc(a1-3)]Gal(b1-4)GlcNAc(b1-3)[Fuc(a1-2)[GalNAc(a1-3)]Gal(b1-4)GlcNAc(b1-6)]GalNAc
# Outline: as §1
# [27] = target: Fuc(a1-2)[GalNAc(a1-3)]Gal(b1-4)GlcNAc(b1-6)GalNAc
# Outline: as §1
# [28] = target: Fuc(a1-2)[GalNAc(a1-3)]Gal(b1-4)[Fuc(a1-3)]GlcNAc
# Outline: as §1
# [29] = target: Fuc(a1-2)[GalNAc(a1-3)]Gal(b1-4)[Fuc(a1-3)]GlcNAc(b1-3)GalNAc
# Outline: as §1
# [30] = target: Fuc(a1-2)[GalNAc(a1-4)]Gal(b1-4)GlcNAc
# Outline: as §1
binder,measurement,setting,value
"Epa1-NP-mutant-Y228W (Candida glabrata), Q6VBJ0 (protein) MILNPALFLNKCVCIYTTLILLLLTNGGYATSSNDISLASKDPTTFPLGCSPDITTPKKGLSMELYSYDFRKKGSYPCWDAAYLDPNYPRTGYKSHRLLAKVDGVTGNINFYYHATKGCTPQLGHLPASYNYPKPLTMTNFTMLLYGYFRPKVTGFHTFTISADDLLFVNFGAGNAFDCCRRDSSADHFGNYQAYAIWGSKTAKDELTVHLDAGVYYPIRLFYNNREWDGALSFTFKTESNENTVSDFSEYFFSLDDTEEGCPGLISYDSSCASVKTSKIIGIDYHTETPNENLVPITKTIYHLGIPCTGTTTTPLCGSGFYDPLANKCVTINTSSTSSVTKTTSHTTSKEVSFHSSISSQKTLIPKSIPSPYGPIKSQSIPTEMETSSEISSSEYAFSDVISTPSHSPYTKKHSSLNSSSYTSTVIHSLTSYSISQGIFSTSLSEQNITSKSSTDKFSTATSMSNNITQSSIIISQFSTNNENYTTTSMHTSSDKISTETLNNSISTTTSILFSNSSTILKNNTTIISSDKDTHYHPVNPTIVCSTNKTEIICASITQPSISNSNNHWSSSVLKFNSTTVRSTLPSSAGSNETSINVPFSSSTESNTSTSSTSTSNSKMVRSTLPSSAGSNETSISVPFSSSTESNTSTSSTSTSNSKMVRSTLPSSAGSNETSINVPFSSSTESNTSTSSTSTSNSKTVRSTPFSSAGIIMTSLSQRNNKSASSYASSNSKCYNTADSCRKVHSTPSYLLTSSYTSEGVDYDCSLVSTKLKINDTNCVNNKHTTKSCLKTSVTTTIPTLEIKTARKSSSNTIGLHSYPTSSPNKSISSAPIIGYISSFKTIKTASPSYQTSDLTTITTITSLNNPGSTAVENTHESNDKSRKTSSNDISSKHSVIKETKDAVESSNKSHQTNTLKCSSIIIASSSHNSYESLGGTTLTLTLSKVYSPQNNDTLPFLEISEVNPSRTVLPESSKMMQYLTSTEERNKTARNTIATNIVSISTFHFEGEGNAIRMGYTQLLLMLIGIIVMNIGT",glycan array binding signal (z-score),[1],-0.217
same,glycan array binding signal (z-score),[2],-0.252
same,glycan array binding signal (z-score),[3],-0.223
same,glycan array binding signal (z-score),[4],-0.044
same,glycan array binding signal (z-score),[5],-0.111
same,glycan array binding signal (z-score),[6],-0.252
same,glycan array binding signal (z-score),[7],-0.288
same,glycan array binding signal (z-score),[8],-0.436
same,glycan array binding signal (z-score),[9],-0.165
same,glycan array binding signal (z-score),[10],-0.351
same,glycan array binding signal (z-score),[11],-0.099
same,glycan array binding signal (z-score),[12],-0.281
same,glycan array binding signal (z-score),[13],-0.247
same,glycan array binding signal (z-score),[14],-0.213
same,glycan array binding signal (z-score),[15],-0.159
same,glycan array binding signal (z-score),[16],-0.104
same,glycan array binding signal (z-score),[17],-0.421
same,glycan array binding signal (z-score),[18],-0.093
same,glycan array binding signal (z-score),[19],-0.193
same,glycan array binding signal (z-score),[20],-0.144
same,glycan array binding signal (z-score),[21],-0.084
same,glycan array binding signal (z-score),[22],-0.254
same,glycan array binding signal (z-score),[23],-0.161
same,glycan array binding signal (z-score),[24],-0.038
same,glycan array binding signal (z-score),[25],-0.323
same,glycan array binding signal (z-score),[26],-0.236
same,glycan array binding signal (z-score),[27],-0.369
same,glycan array binding signal (z-score),[28],-0.138
same,glycan array binding signal (z-score),[29],-0.1
same,glycan array binding signal (z-score),[30],-0.214
